Reference: PubChem BioAssay AID686978 (National Center for Advancing Translational Sciences (NCATS), 2013)
The whole screen tested about 420,000 compounds, of which about 64,000 (15%) were called active. Inconclusive means that the source gave no clear call. Such entries were picked first, then a sample of the others. The call rests on the fitted dose curve; in most records, active means well fitted inhibition curve with a large enough effect; inconclusive means small, poorly fitted or top-dose-only effect; inactive means flat fitted curve, though single readings scatter. No potency is given beside an inconclusive call; the fits are too rough.

Assay: qHTS for Inhibitors of human tyrosyl-DNA phosphodiesterase 1 (TDP1): qHTS in cells in absence of CPT; further: nearly all actives have a fitted effect of over 55% in size
Settings: DT40 Tdp1-/- hTDP1 cells, no CPT, ATP luminescence, 48 h; activity change, negative = growth inhibition: at 46.2 µM (top of the series) unless noted
In short: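 Chicken DT40 Tdp1-/- cells complemented with human TDP1, screened without camptothecin (DMSO vehicle only), 400 cells/well. Compounds pin-transferred, cells incubated at 37 °C for at least 48 hr. Growth read as ATP-dependent luminescence (CellTiter-Glo, 30 min at RT).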
On the % scale 0 is the no-effect control and ±100 the full control effect; potency means the concentration at half of the fitted maximal effect; tags describe the fitted curve by direction and shape.

Structure (SMILES)	Potency	activity change, negative = growth inhibition
CCOC(=O)C1CCN(C(=O)CCc2nnc3ccc(NCc4ccco4)nn23)CC1	inactive	
CC1CCN(S(=O)(=O)c2ccc3c(c2)N(CC(=O)NC(C)c2ccccc2)C(=O)CS3)CC1 (stereo not given)	inconclusive [inhibitor, single point]	
COc1ccc(S(=O)(=O)N2CCCCC2c2cc(C(=O)Nc3ccc4c(c3)OCO4)no2)cc1 (stereo not given)	active: 14.6 µM	
COc1ccc(CCC(=O)NCCc2ccc(OC)c(OC)c2)cc1	inactive	
C/C(=N\NC(=O)c1[nH]c2c([N+](=O)[O-])cc(C)cc2c1-c1ccccc1)c1cccnc1	active: 14.6 µM	
Cc1cc2[nH]c3ccccc3c2cn1	inconclusive [inhibitor, partial curve]	
CCOC(=O)CSC1=C(C#N)C(c2ccc(Cl)cc2)C(C(=O)OC)C(=O)N1 (stereo not given)	inconclusive [inhibitor, single point]	
Cc1cc(C)nc(N/N=C/c2ccccc2OCC(=O)O)n1	inactive	
Cc1ccc(Oc2nc(CN3CCOCC3)nc3sc4c(c23)CCC(C)C4)cc1 (stereo not given)	inconclusive [inhibitor, single point]	
COCCCN1CC(=O)N2C(c3cccc(C)c3)c3[nH]c4ccccc4c3C[C@H]2C1=O (stereo not given in full)	inactive	
COc1ccccc1CNS(=O)(=O)c1ccc2c(c1)CC(C)N2C(C)=O (stereo not given)	active: 18.4 µM	
CCOc1ccc2[nH]c(=O)c(C(c3nnnn3Cc3ccco3)N3CCN(C)CC3)cc2c1 (stereo not given)	inactive	
COc1ccc(-c2ccc(S(=O)(=O)N3CCCC3)cc2)cc1	inconclusive [inhibitor, single point]	
CC(C)Cn1cc(NC(=O)N2CCN(c3cccc(Cl)c3)CC2)c2ccccc2c1=O	inconclusive [inhibitor, single point]	
CN(CC(=O)Nc1cccc(S(=O)(=O)NC2=NCCC2)c1)Cc1ccccc1Cl	inactive	
O=C1OC2CC3CC1CC(O)(C3)C2 (stereo not given)	inconclusive [inhibitor, partial curve]	
CC(=O)Nc1ccc(C(=O)COC(=O)C2CC2)c(F)c1	inactive	
Cc1ccc(CN2CCC(c3nc4ccc(Cl)cc4[nH]3)CC2)cc1	active: 16.4 µM	
FC(F)(F)c1ccccc1Cc1c(-c2ccc(Cl)cc2)nc2ccc(Cl)cn12	inconclusive [inhibitor, single point]	
O=C(Nc1c(Cl)cc(Cl)cc1C(=O)NCc1cccnc1)c1ccc(Cl)cc1Cl	inconclusive [inhibitor, partial curve]	
COC(=O)c1sc(C(=O)OC)c(C(=O)OC)c1C(=O)OC	inactive	
O=C(c1ccco1)N1CC2(CC(c3ccc(Cl)cc3)=NO2)CN1Cc1ccc(Br)cc1 (stereo not given)	inconclusive [inhibitor, single point]	
N=C(N)SCc1ccc(Cl)c2ccccc12	inconclusive [inhibitor, single point]	

Structure (SMILES)	Potency	activity change, negative = growth inhibition
COc1cccc(C(=O)NCC(c2cccs2)N2CCc3ccccc32)c1 (stereo not given)	inconclusive [inhibitor, single point]	
COc1cc(C2C(C#N)=C(N)Oc3c2ccc2ccccc32)ccc1OCC(=O)Nc1ccccc1C (stereo not given)	active: 25.9 µM	
O=C(NCCc1csc(-c2ccccc2)n1)c1c(F)cccc1Cl		inconclusive: -30.1% [inhibitor]
O=C(Nc1ccc2c(c1)OCO2)c1cccs1	inconclusive [inhibitor, partial curve, poor fit]	
CCc1ccc(NC(=O)N2CCOc3ccc(Cl)cc32)cc1	active: 13 µM	
Cc1ccc(C)c(C(=O)CCC(=O)N2CCN(c3ncccn3)CC2)c1	inconclusive [inhibitor, single point]	
CCN(CC)C(=O)C1=C(C)N(Cc2ccc(OC)cc2)C(=O)C(CC(=O)NC(c2ccccc2)c2ccccc2)C1 (stereo not given)	inconclusive [inhibitor, single point]	
COc1ccc([C@@H](OC)[C@@]2(Cc3ccc(O)cc3)N=C(N)N(C)C2=O)cc1	inconclusive [inhibitor, single point]	
c1ccc(C2CCC(N3CCN(c4ccccc4)CC3)CC2)cc1 (stereo not given)	inconclusive [inhibitor, single point]	
COc1cc(NC(=O)c2ccc(F)cc2)ccc1NC(=O)c1cc2ccccc2o1	inactive	
Cc1cc(C)c(NC(=O)c2cc(S(=O)(=O)N3CCC4(CC3)OCCO4)ccc2F)c(C)c1	inconclusive [inhibitor, single point]	
O=C(COc1ccc(F)cc1)N(c1ccccn1)C1CCCCC1		inconclusive: -33.2% [inhibitor]
CCOP(=O)(OCC)/C(C#N)=C/c1c[nH]c2ccccc12	inconclusive [inhibitor, single point]	
CC1(C(=O)NS(=O)(=O)C2CC2)CCCN(C(=O)c2ccc(F)c(Cl)c2)C1 (stereo not given)	active: 5.17 µM	
O=C(O)c1cc(=O)c2ccccc2o1	inconclusive [inhibitor, full curve, poor fit]	
Cc1[nH]nc2c1C(c1ccc(-c3ccc(Cl)cc3)o1)C(C#N)=C(N)O2 (stereo not given)	inconclusive [inhibitor, single point]	
COc1ccccc1CN1CCCC2(CCN(C(=O)c3c(C)noc3C)CC2)C1	inactive	
Cc1ccc(-c2csc(NC(=O)CN3CCC(C(N)=O)CC3)n2)cc1	inconclusive [inhibitor, partial curve, poor fit]	
COC(=O)c1ccc(NC(=O)CC2C(=O)N(c3cccc(OC)c3)C(=O)N2Cc2cccs2)cc1 (stereo not given)	inconclusive [inhibitor, single point]	
C=CCSc1nnc2c(n1)[nH]c1c(C)cccc12	inconclusive [inhibitor, partial curve]	
CCOc1ccc(-c2cc(CCCC(=O)Nc3cc(OC)ccc3OC)no2)cc1	inconclusive [inhibitor, single point]	
CN(Cc1nc2ccccc2n1C)S(=O)(=O)c1ccc(F)cc1	inconclusive [inhibitor, single point]	
